Source: the supplement of paper PMC9446081
Out of some 39,000 compounds screened, about 220 (0.56%) showed activity. Some of the results follow.
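Further: static incubation at 37 °C against the wild-type strain, values averaged over two biological replicates.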

These compounds were tested on Escherichia coli K-12 BW25113 (assay: relative growth (OD600 normalised to plate interquartile mean) (fraction); higher = less growth inhibition, active = 0.2 or less). Settings: 50 µM; LB; incubation time: overnight (16-24 h).
In the case of `C[C@H](CO)N1C[C@H](C)[C@H](CN(C)S(=O)(=O)c2cccs2)Oc2ccc(NS(C)(=O)=O)cc2C1=O`, the relative growth is reported as inactive: 0.999. With `COc1ccc(C#Cc2cnc3c(c2)C(=O)N([C@@H](C)CO)C[C@@H](C)[C@@H](CN(C)CC2CCOCC2)O3)cc1` the relative growth was inactive: 0.992. In the case of `C[C@H](CO)N1C[C@H](C)[C@H](CN(C)S(=O)(=O)c2cn(C)cn2)Oc2ccc(NC(=O)Cn3cnnn3)cc2C1=O`, the relative growth is reported as inactive: 1. In the case of `C[C@H](CO)N1C[C@H](C)[C@@H](CN(C)C(=O)Cc2ccncc2)Oc2ncc(C#Cc3ccccc3F)cc2C1=O`, the relative growth is reported as inactive: 1. For `O=C(C[C@H]1C=C[C@@H](NC(=O)CN2CCOCC2)[C@H](CO)O1)NCc1cccc(F)c1`, the relative growth was inactive: 1. With `C[C@@H]1CN([C@H](C)CO)C(=O)c2cc(NS(C)(=O)=O)ccc2O[C@H]1CN(C)S(=O)(=O)c1ccc(Cl)cc1` the relative growth was inactive: 0.982. For `O=C(C[C@@H]1CC[C@@H]2[C@H](COC[C@@H](O)CN2C(=O)c2ccccn2)O1)NC1CCC1`, the relative growth was inactive: 1.07. `C[C@@H]1CN([C@@H](C)CO)C(=O)c2cccc(NC(=O)C3CC3)c2O[C@H]1CN(C)S(=O)(=O)c1cn(C)cn1` was tested, and the relative growth was inactive: 0.974. In the case of `CCc1nc2ccc(C(=O)NCCN3CCNC3=O)cn2c1N(CC)Cc1cccc(Br)c1`, the relative growth is reported as inactive: 1. In the case of `C[C@@H]1CN([C@H](C)CO)C(=O)Cc2cc(NS(=O)(=O)c3ccccc3)ccc2O[C@H]1CN(C)S(=O)(=O)c1cn(C)cn1`, the relative growth is reported as inactive: 0.979. In the case of `CC(C)(C)c1ccc(NC(=O)c2ccc(C(C)(C)C)s2)cc1`, the relative growth is reported as inactive: 1.04. `COc1ccc(NC(=O)N(C)C[C@H]2OCCCC[C@H](C)Oc3ccc(NC(=O)Nc4ccccc4)cc3C(=O)N([C@@H](C)CO)C[C@@H]2C)cc1` was tested, and the relative growth was inactive: 1.02. In the case of `COc1ccc(NC(=O)Nc2ccc3c(c2)C(=O)N([C@@H](C)CO)C[C@@H](C)[C@H](CN(C)C(=O)c2ccccc2)OCCCC[C@H](C)O3)cc1`, the relative growth is reported as inactive: 0.997. For `COCc1cn(CC[C@H]2CC[C@H](NC(=O)CCN3CCCCC3)[C@@H](CO)O2)nn1`, the relative growth was inactive: 1.02. `Cc1noc(C)c1S(=O)(=O)N(C)C[C@H]1Oc2ccc(NS(=O)(=O)c3ccccc3)cc2C(=O)N([C@@H](C)CO)C[C@H]1C` was tested, and the relative growth was inactive: 1. In the case of `Cc1noc(C)c1NC(=O)Nc1ccc2c(c1)C(=O)N([C@@H](C)CO)C[C@@H](C)[C@H](CN(C)C(=O)Nc1ccccc1)OCCCC[C@H](C)O2`, the relative growth is reported as inactive: 1.02. In the case of `O=C(O)c1cn2cccc(O)c2n1`, the relative growth is reported as inactive: 0.997. With `COc1ccc([C@@H](NC(=O)C2CCN(CCOc3ccc(Cl)cc3Cl)CC2)c2ccccn2)cc1` the relative growth was inactive: 1.01. For `COc1ccccc1CNC(=O)C[C@@H]1CC[C@@H]2[C@H](COC[C@H](O)CN2C(=O)Nc2ccc(Cl)cc2)O1`, the relative growth was inactive: 0.943. For `O=C(C[C@H]1C[C@H]2c3cc(NC(=O)C4CCOCC4)ccc3O[C@H]2[C@@H](CO)O1)NCc1ccc2c(c1)OCO2`, the relative growth was inactive: 0.994. `Cc1ccc(S(=O)(=O)Nc2ccc3c(c2)C(=O)N([C@@H](C)CO)C[C@H](C)[C@@H](CN(C)S(=O)(=O)c2cn(C)cn2)O3)cc1` was tested, and the relative growth was inactive: 0.932. For `CCO[C@H]1OC(C(=O)N2CCOCC2)=C[C@@H](c2ccc3c(c2)OCO3)[C@@H]1CCCOC(=O)NCCCCCC(=O)NO`, the relative growth was inactive: 0.999. In the case of `CCN(Cc1cc(C(F)(F)F)ccc1-c1cc(CC(=O)O)ccc1OC)C(=O)NCc1ccccc1`, the relative growth is reported as inactive: 0.998. `Cc1noc(C)c1NC(=O)Nc1ccc2c(c1)C(=O)N([C@H](C)CO)C[C@@H](C)[C@H](CN(C)C(=O)Nc1ccccc1)OCCCC[C@@H](C)O2` was tested, and the relative growth was inactive: 0.994. With `CC(C)NC(=O)Nc1ccc2c(c1)C(=O)N([C@H](C)CO)C[C@@H](C)[C@@H](CN(C)S(=O)(=O)c1cccs1)O2` the relative growth was inactive: 0.979. For `COc1ccc(C#Cc2cnc3c(c2)C(=O)N([C@H](C)CO)C[C@@H](C)[C@H](CN(C)C(=O)CC2CC2)O3)cc1`, the relative growth was inactive: 1.01. For `COC(=O)c1ccc([C@H](c2c(N)n(CC(C)C)c(=O)[nH]c2=O)N2CCOCC2)cc1`, the relative growth was inactive: 1.02. For `O=C(NCC[C@H]1CCCCN1S(=O)(=O)c1ccc(F)cc1)C(=O)NCCN1CCOCC1`, the relative growth was inactive: 0.997. In the case of `COc1ccc(CCNC(=O)[C@@]2(Cc3ccccc3I)c3ccccc3C(=O)N(Cc3ccccc3OC)[C@H]2c2ccc(CO)cc2)cc1`, the relative growth is reported as inactive: 1.03. `CC(N)(Cc1cccc(O)c1)C(=O)O` (configuration not stated) was tested, and the relative growth was inactive: 0.968. With `O=C(N[C@H]1C=C[C@H](CC(=O)N2CCOCC2)O[C@@H]1CO)c1ccccn1` the relative growth was inactive: 0.967. For `CO[C@H]1CN(C)C(=O)c2ccc(NC(=O)Nc3ccccc3)cc2OC[C@H](C)N(C(=O)CN(C)C)C[C@H]1C`, the relative growth was inactive: 1.04. In the case of `C[C@@H]1CN([C@@H](C)CO)C(=O)c2cc(NC(=O)Nc3ccc(C(F)(F)F)cc3)ccc2O[C@@H](C)CCCCO[C@@H]1CN(C)C(=O)Nc1ccc2c(c1)OCO2`, the relative growth is reported as inactive: 1.03. With `COc1ccc(C(=O)Nc2ccc3c(c2)C(=O)N(C)[C@@H]2CC[C@@H](CC(=O)NCC4CC4)O[C@H]2CO3)cc1` the relative growth was inactive: 0.96. For `O=C1CC2(CCCC2)CC(=O)N1`, the relative growth was inactive: 0.987. In the case of `COc1ccc(S(=O)(=O)N(C)C[C@@H]2Oc3ccc(NC(=O)Cn4cnnn4)cc3C(=O)N([C@H](C)CO)C[C@H]2C)cc1`, the relative growth is reported as inactive: 1. In the case of `C[C@@H]1CN([C@@H](C)CO)C(=O)CCCn2cc(nn2)CO[C@@H]1CN(C)Cc1ccc(C(=O)Nc2ccccc2N)cc1`, the relative growth is reported as inactive: 0.97. For `Cc1ccc(S[C@]2(C(=O)NCC(F)(F)F)CC(=O)N(Cc3cc(C(F)(F)F)cc(C(F)(F)F)c3)[C@@H]2c2ccc(CO)cc2I)cc1`, the relative growth was inactive: 0.86. With `COCC#Cc1ccc2c(c1)O[C@H](CN(C)S(=O)(=O)c1cccc(F)c1)[C@@H](C)CN([C@H](C)CO)S2(=O)=O` the relative growth was inactive: 1.01. `Cc1noc(C)c1S(=O)(=O)Nc1ccc2c(c1)C(=O)N([C@@H](C)CO)C[C@@H](C)[C@@H](CN(C)Cc1ccc(-c3ccccc3)cc1)O2` was tested, and the relative growth was inactive: 0.965. With `C[C@@H]1CN([C@H](C)CO)C(=O)Cc2cc(NS(C)(=O)=O)ccc2O[C@H]1CN(C)S(=O)(=O)c1ccccc1` the relative growth was inactive: 1.09. `COCC(=O)N1C[C@H](C)[C@H](OC)CN(C)C(=O)c2cc(NC(=O)c3cc(C)on3)ccc2OC[C@H]1C` was tested, and the relative growth was inactive: 0.996. With `CCNC(=O)[C@@H]1CCCN1C(=O)[C@H](CCCNC(=N)N)NC(=O)[C@H](CC(C)C)NC(=O)[C@@H](CC(C)C)NC(=O)[C@H](Cc1ccc(O)cc1)NC(=O)[C@H](CO)NC(=O)[C@H](Cc1c[nH]c2ccccc12)NC(=O)[C@H](Cc1cnc[nH]1)NC(=O)[C@@H]1CCC(=O)N1` the relative growth was inactive: 1.02. In the case of `C[C@@H]1CN([C@@H](C)CO)C(=O)Cc2cc(NS(=O)(=O)c3cn(C)cn3)ccc2O[C@H]1CN(C)Cc1ccncc1`, the relative growth is reported as inactive: 0.981. For `Cc1noc(C)c1NC(=O)N(C)C[C@H]1OCCCC[C@@H](C)Oc2ccc(NC(=O)C3CCCCC3)cc2C(=O)N([C@@H](C)CO)C[C@@H]1C`, the relative growth was inactive: 0.969. `CCC1OC(=O)CC(O)C(C)C(OC2OC(C)C(O)C(N(C)C)C2O)C(CCN2CC(C)CC(C)C2)CC(C)C(=O)C=CC(C)=CC1COC1OC(C)C(O)C(OC)C1OC` (configuration not stated) was tested, and the relative growth was inactive: 0.864. For `CC(C)NC(=O)Nc1ccc2c(c1)CC(=O)N([C@@H](C)CO)C[C@H](C)[C@H](CN(C)S(=O)(=O)c1ccc(F)cc1)O2`, the relative growth was inactive: 0.99. `C[C@@H]1CN([C@H](C)CO)C(=O)c2cc(C#Cc3ccccc3)cnc2O[C@@H]1CN(C)C(=O)CCN1CCCCC1` was tested, and the relative growth was inactive: 1. For `COCC(=O)Nc1ccc2c(c1)C(=O)N(C)[C@H]1CC[C@H](CC(=O)NCc3ccc(OC)cc3)O[C@@H]1CO2`, the relative growth was inactive: 0.992. In the case of `COc1ccc(NC(=O)Nc2cccc3c2O[C@H](CN(C)Cc2ccc(C(=O)Nc4ccccc4N)cc2)[C@H](C)CN([C@@H](C)CO)C3=O)cc1`, the relative growth is reported as inactive: 0.982. In the case of `C[C@@H]1CN([C@H](C)CO)C(=O)c2cccc(NS(=O)(=O)c3cn(C)cn3)c2O[C@H]1CN(C)S(=O)(=O)c1ccccc1`, the relative growth is reported as inactive: 0.996. For `C[C@H]1CN([C@@H](C)CO)C(=O)c2cc(C#CC3(O)CCCC3)cnc2O[C@@H]1CN(C)S(=O)(=O)c1cccc(F)c1`, the relative growth was inactive: 1.01. `COc1ccc(CN(C)C[C@@H]2OCCCC[C@H](C)Oc3ccc(NC(=O)NC4CCCCC4)cc3C(=O)N([C@@H](C)CO)C[C@H]2C)cc1` was tested, and the relative growth was inactive: 0.979. `O=C(CNCCO)Nc1ccc(F)c(Cl)c1` was tested, and the relative growth was inactive: 0.957. For `Cc1cc(C(=O)Nc2cccc3c2O[C@H](CN(C)Cc2ccc4c(c2)OCO4)[C@H](C)CN([C@H](C)CO)C3=O)n(C)n1`, the relative growth was inactive: 0.98. For `COc1ccc(C=CC(=O)O)cc1OC`, the relative growth was inactive: 0.968. In the case of `O=c1nc(NCCN2CCOCC2)cn[nH]1`, the relative growth is reported as inactive: 0.998. With `OCC(O)CO` the relative growth was inactive: 1.01. For `Cn1nnc2cc(CO)ccc21`, the relative growth was inactive: 1.01. With `CCN(CC)CCCCNc1ncc2cc(-c3cc(OC)cc(OC)c3)c(NC(=O)NC(C)(C)C)nc2n1` the relative growth was inactive: 0.848. `O=C(C[C@@H]1C[C@@H]2c3cc(NC(=O)Nc4ccccc4F)ccc3O[C@@H]2[C@@H](CO)O1)NCc1ccc(Oc2ccccc2)cc1` was tested, and the relative growth was inactive: 1. `C[C@H](CO)N1C[C@H](C)[C@H](CN(C)Cc2ccc(Cl)c(Cl)c2)Oc2c(NC(=O)NC3CCCCC3)cccc2C1=O` was tested, and the relative growth was inactive: 1.02.
